Assay [1] concerns the target Ku70, endogenous (human (endogenous in HOS, NCI-H460, HCT116, HEK293T)) (UniProt P12956). The experiment in a line: co-IP; Flag-tagged HSF1 constructs (wild type, deletion and point mutants) transiently transfected into HEK293T cells; western blotting following immunoprecipitation of cell extracts. A general note: Immunoblotting shows a protein as a band on a membrane.

Amino acid sequences for entries named in this document (tags omitted). A change or cut given only in a name is not applied to a line headed by its entry.
UniProt P12956: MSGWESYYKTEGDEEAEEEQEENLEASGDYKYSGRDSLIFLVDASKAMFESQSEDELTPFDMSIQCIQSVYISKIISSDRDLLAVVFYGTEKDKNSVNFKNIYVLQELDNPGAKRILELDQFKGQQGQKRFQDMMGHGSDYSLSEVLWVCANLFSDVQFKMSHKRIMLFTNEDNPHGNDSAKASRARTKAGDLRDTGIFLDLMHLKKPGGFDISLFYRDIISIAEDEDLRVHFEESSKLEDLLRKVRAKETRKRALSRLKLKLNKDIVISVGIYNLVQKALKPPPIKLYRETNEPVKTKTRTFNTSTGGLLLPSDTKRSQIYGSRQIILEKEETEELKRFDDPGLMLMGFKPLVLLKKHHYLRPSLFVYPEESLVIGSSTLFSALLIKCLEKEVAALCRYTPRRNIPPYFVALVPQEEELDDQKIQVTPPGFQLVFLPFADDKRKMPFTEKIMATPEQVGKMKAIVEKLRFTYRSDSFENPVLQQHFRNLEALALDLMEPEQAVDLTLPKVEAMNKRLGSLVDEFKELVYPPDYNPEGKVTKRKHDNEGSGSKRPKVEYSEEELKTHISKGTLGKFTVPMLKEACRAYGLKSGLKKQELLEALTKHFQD
UniProt Q00613: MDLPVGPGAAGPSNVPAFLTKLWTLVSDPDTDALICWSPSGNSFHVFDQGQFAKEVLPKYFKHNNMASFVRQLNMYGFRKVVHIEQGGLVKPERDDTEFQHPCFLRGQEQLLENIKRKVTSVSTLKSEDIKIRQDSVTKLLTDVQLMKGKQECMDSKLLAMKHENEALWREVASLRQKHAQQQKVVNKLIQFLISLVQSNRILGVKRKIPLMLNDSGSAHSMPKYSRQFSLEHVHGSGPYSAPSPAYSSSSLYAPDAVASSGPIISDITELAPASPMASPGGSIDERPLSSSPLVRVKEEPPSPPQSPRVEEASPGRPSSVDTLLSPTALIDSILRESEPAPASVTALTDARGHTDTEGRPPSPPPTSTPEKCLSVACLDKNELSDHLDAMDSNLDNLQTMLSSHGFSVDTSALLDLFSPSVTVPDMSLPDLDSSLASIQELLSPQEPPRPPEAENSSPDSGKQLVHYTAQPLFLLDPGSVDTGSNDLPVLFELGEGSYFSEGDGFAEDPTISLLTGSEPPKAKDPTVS
UniProt P04792: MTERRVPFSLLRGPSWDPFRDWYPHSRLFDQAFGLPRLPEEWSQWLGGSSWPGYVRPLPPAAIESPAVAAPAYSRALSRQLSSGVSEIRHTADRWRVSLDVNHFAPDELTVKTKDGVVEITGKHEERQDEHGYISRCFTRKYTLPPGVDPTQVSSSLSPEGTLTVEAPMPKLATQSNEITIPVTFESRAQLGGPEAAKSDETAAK
UniProt P13010: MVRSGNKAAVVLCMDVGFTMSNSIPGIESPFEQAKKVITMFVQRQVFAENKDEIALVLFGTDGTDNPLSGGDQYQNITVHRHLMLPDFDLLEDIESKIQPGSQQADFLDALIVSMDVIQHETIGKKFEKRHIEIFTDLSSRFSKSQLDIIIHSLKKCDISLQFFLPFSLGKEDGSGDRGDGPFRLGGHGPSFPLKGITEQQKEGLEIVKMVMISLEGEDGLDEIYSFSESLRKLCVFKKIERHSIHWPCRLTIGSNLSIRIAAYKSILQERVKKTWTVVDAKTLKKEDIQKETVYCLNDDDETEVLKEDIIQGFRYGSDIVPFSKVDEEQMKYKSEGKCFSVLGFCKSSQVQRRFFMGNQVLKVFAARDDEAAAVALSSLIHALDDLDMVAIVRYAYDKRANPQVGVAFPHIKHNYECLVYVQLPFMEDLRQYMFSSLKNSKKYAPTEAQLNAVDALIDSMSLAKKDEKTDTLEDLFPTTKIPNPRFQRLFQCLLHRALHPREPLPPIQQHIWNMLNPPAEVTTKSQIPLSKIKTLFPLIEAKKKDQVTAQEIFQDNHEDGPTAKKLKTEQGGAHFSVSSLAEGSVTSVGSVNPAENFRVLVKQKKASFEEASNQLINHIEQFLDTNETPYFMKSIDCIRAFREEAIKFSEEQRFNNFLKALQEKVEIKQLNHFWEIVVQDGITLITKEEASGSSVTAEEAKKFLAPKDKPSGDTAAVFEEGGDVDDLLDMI

Assay [2] has the same target. The experiment in a line: co-IP; purified recombinant HSF1-GST proteins (0, 10, 50, and 100 ng/ml) added to HOS cell extracts; after 16 hrs immunoprecipitation and western blotting; pair of the added HSF1 and a Ku protein; only the binder purified.
Assay [3] shares this target. The experiment in a line: co-IP; immunoprecipitation from HOS cell extracts (50 mM HEPES pH 7.6, 150 mM NaCl, 5 mM EDTA, 0.1% Nonidet P-40), protein A-Sepharose, western blotting; cells untreated, exposed to 5 Gy IR, heat shocked (42°C, 30 min), or transfected with Si-HSF1 or HSF1 wild type plasmid.
Assay [4] shares this target. Briefly: co-IP; Si-Control or Si-HSF1 transfected HCT116 (p53+/+ and p53-/-) cells exposed to 5 Gy IR; western blotting following immunoprecipitation of cell extracts.
For assay [5] the target is unchanged. The experiment in a line: co-IP; immunoprecipitation from NCI-H460 cell extracts; cells heat shocked or exposed to IR (Supplementary Figure 6C).
For assay [6], the target named is GST-HSF1 fusion protein (human) (UniProt Q00613). The experiment in a line: pull-down; GST-HSF1 fusion proteins loaded on glutathione-sepharose beads, incubated with HOS cellular lysates in binding buffer for 18 hours at 4°C; western blotting; only the target purified.
Assay [7] has the same target. Briefly: co-IP; in vitro translated Ku70/Ku86 proteins incubated with GST-HSF1; immunoprecipitates subjected to an in vitro binding assay; only the target purified.

Results are given in words; binding and its absence hold for the method and conditions named. In cells and extracts the contact can be indirect. Some binding calls cover weakened binding; strength is not graded here.

“Flag-HSF1-K80R (from UniProt Q00613 1-529)”: the binding result in assay [1] is “binds”. On the same count and under the same terms, next, “Flag-HSF1-K298R (from UniProt Q00613 1-529)”: “binds”. Same read-out and setting: under “Flag-HSF1-S216A (from UniProt Q00613 1-529)” stands “binds”; under “Flag-HSF1-S216E (from UniProt Q00613 1-529)”, “binds”; under “Flag-HSF1-S326A (from UniProt Q00613 1-529)”, “binds”. Still for that read-out and setting: under “Flag-HSF1-S326E (from UniProt Q00613 1-529)” stands “binds”.

For the substance “Flag-HSF1-S419A (from UniProt Q00613 1-529)”, the binding result in assay [1] is “binds”. On to “Flag-HSF1-S419E (from UniProt Q00613 1-529)”, for which the binding entry in assay [1] is listed as “binds”.

On to “Flag-tagged wild-type HSF1 (from UniProt Q00613 1-529)”, for which, in assay [1], the binding result was “binds”. For “GST-HSF1 fusion protein (from UniProt Q00613 1-529)”, the binding entry in assay [2] is on record as “binds”. For the substance “HSP27, endogenous (from UniProt P04792 1-205)”, the binding entry in assay [3] was “no binding”. As to “Heat shock factor 1 (HSF1), endogenous (from UniProt Q00613 1-529)”, the binding result in assay [3], in assay [4] and in assay [5] was “binds” each time. For “Ku70, endogenous (from UniProt P12956 1-609)”, the binding result in assay [6] was “binds”. As for “in vitro translated full-length wild-type Ku70 (from UniProt P12956 1-609)”, in assay [7], the binding entry was “binds”. For the substance “in vitro translated full-length wild-type Ku86 (from UniProt P13010 1-732)”, in assay [7], the binding entry is “binds”.

The values above are taken from paper PMC4745757.
